Assay results: PMC4336329 (PLoS ONE, 2015)
In all, about 310,000 compounds went through this assay and about 14,000 (4.5%) showed an effect of 50% or more. The effect is printed as a negative number. This is one part of the list.

These molecules were tested against human ether-à-go-go-related gene (hERG) potassium channel (human, UniProt Q12809) (assay: primary screen, population patch clamp on CHO cells stably expressing hERG).
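Note: peak tail current of the secondary pulse compared with the same well before compound.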

human ether-à-go-go-related gene (hERG) potassium channel, sequence (Q12809 whole entry, looked up): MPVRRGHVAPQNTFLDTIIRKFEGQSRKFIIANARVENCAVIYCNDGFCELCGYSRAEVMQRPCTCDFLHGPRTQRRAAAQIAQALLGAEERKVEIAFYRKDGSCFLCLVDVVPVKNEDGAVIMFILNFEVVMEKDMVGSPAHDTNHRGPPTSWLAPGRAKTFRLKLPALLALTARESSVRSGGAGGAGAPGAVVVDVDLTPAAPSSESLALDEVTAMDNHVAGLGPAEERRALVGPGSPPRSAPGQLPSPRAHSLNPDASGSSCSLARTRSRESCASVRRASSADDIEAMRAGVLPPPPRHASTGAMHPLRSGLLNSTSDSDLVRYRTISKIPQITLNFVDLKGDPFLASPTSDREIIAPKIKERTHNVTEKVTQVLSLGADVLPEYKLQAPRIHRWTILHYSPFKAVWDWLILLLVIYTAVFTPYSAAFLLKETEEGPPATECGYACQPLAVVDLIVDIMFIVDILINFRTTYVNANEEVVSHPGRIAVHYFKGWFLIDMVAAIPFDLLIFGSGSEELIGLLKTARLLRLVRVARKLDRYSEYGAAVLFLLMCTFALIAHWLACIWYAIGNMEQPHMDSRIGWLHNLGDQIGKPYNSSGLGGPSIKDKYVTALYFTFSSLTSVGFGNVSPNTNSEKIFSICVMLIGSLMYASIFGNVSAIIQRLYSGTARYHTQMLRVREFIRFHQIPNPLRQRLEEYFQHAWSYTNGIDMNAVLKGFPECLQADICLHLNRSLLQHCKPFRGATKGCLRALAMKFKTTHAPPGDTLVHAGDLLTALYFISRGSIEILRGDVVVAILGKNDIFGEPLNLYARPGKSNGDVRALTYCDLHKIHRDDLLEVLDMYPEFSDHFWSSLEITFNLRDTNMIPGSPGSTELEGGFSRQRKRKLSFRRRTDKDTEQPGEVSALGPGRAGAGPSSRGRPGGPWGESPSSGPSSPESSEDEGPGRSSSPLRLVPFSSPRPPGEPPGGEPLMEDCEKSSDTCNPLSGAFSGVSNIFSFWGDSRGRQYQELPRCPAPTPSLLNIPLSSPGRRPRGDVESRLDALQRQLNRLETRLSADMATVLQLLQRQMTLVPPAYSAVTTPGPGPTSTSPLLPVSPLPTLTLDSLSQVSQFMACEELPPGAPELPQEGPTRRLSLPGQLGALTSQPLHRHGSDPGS

SMILES	hERG current change (%, negative = inhibition) at 10uM [%]
CCCCNC(=O)c1cc(C)no1	11.1
Cc1ccc(-n2nc3c(=O)n(CCCC(=O)NCCc4ccccc4)nc(C)c3c2C)cc1	7.96
CCS(=O)(=O)N1N=C(c2ccccc2)CC1c1ccc2nccnc2c1 (stereo not drawn)	-16.3
C=CCNc1nc2c(c(=O)n(C)c(=O)n2C)n1CCCCCC	-23
COc1cccc(-n2c(-c3ccc4[nH]c(C)c(C)c4c3)n[nH]c2=S)c1	6.83
CC(=O)c1cccc(OCc2cc(C(=O)NCCC3=CCCCC3)no2)c1	7.85
CN(C)Cc1nc2ccccc2c(=O)n1CC#N	11.5
COc1cccc(/C=N/NC(=O)CCC(=O)Nc2ccc(Br)cc2)c1	20.4
CC(=O)NCCCc1c[nH]c2ccc(Cl)cc12	4.59
CC1(C)OC(=O)N(CC(=O)Nc2ccccc2)C1(C)O (stereo not drawn)	36.4
Cc1sc2nc(SCc3nc(-c4cccs4)no3)n(-c3ccccc3)c(=O)c2c1C	14.8
Cc1cccn2c(=O)nc(SCC(=O)NCc3ccco3)nc12	1.37
CN(CCc1ccccn1)C(=O)c1ccc(OC(F)(F)F)cc1.Cl	5.41
Cc1ccc(N(CCC(=O)O)S(=O)(=O)c2cccc(C(F)(F)F)c2)cc1	8.11
Cc1nnc(N2C(=O)C(O)=C(C(=O)c3ccco3)C2c2ccc(C(C)(C)C)cc2)s1 (stereo not drawn)	6.25
Cc1ccc(SCC(=O)Nc2ccccc2N2CCOCC2)cc1	-16.7
CCOC(=O)c1c(C)n(C)c2cc(Br)c(OC)cc12	15.6
CCc1ccc(NC(=O)Nc2ccncc2)cc1	-20.9
CCOc1ccc(NS(=O)(=O)c2cc(OC)ccc2OC)cc1	7.99

SMILES	hERG current change (%, negative = inhibition) at 10uM [%]
COc1ccc(OCC(=O)NC(=S)N2CCCc3ccccc32)cc1	2.37
Cc1nn(C)cc1C(=O)Nc1ccc2c(c1)OCCO2	9.1
O=[N+]([O-])c1ccc(CN2CCOCCOCCOCC2)cc1	-59.1
Cc1noc(C)c1C(=O)NNc1ccc(C(C)C)cc1	-1.85
CC1C(C#N)=C(SCC(N)=O)NC2=C1C(=O)CC(C)(C)C2 (stereo not drawn)	17.7
O=c1c(Cl)c(NCc2ccc(F)cc2)cnn1C12CC3CC(CC(C3)C1)C2	-30.5
CCOC(=O)c1cnc2c(Cl)cccc2c1NCCN1CCOCC1	-15.3
Cc1nn(Cc2cccc(Oc3ccccc3)c2)c(C)c1NC(=O)NC12CC3CC(CC(C3)C1)C2	-5.79
Cc1ccc(NS(=O)(=O)c2c(C)[nH]c(C)c2C(=O)N2CCCCC2)cc1Cl	16.3
CN(C)S(=O)(=O)c1ccc(Cl)c(NC(=O)COC(=O)CC(NC(N)=O)c2ccc(Cl)cc2)c1 (stereo not drawn)	3.05
Cc1cccc(NS(=O)(=O)c2ccc(NC(=O)CN(c3cc([N+](=O)[O-])ccc3C)S(C)(=O)=O)cc2)c1	2.36
O=C(c1ccc(Br)s1)N1CCN(C/C=C/c2ccccc2)CC1	-40.6
N#C/C(=N\Nc1ccccc1)C(=N)N1CCCCCC1	-41.1
CCc1nc2scc(-c3ccccc3)c2c(=O)n1N	1.05
O=C(Nc1cccn(Cc2ccc(F)cc2)c1=O)NC1CCCCC1	-36.2
CSc1ccc(C(=O)C2CCCN(C(=O)c3ccsc3)C2)cc1 (stereo not drawn)	-30.5
CCCCn1nc(C(=O)Nc2cc(C(F)(F)F)ccc2N2CCOCC2)ccc1=O	-83.7
Cc1cc(F)ccc1NCc1ccc([N+](=O)[O-])cc1	-0.213
O=C(C1CCCO1)N1CCN(c2ncccn2)CC1 (stereo not drawn)	13.7

SMILES	hERG current change (%, negative = inhibition) at 10uM [%]
CN1C(=O)C(CC(=O)Nc2ccc3c(c2)Cc2ccccc2-3)N(C)C1=O (stereo not drawn)	-11.5
CCN1C(=O)[C@H]2[C@@H](c3ccc(-c4ccc(F)cc4)c(OC)c3)N[C@@](C)(C(=O)OC)[C@H]2C1=O.O=C(O)C(F)(F)F	-4.06
COc1ccc(-c2cc(C(=O)Nc3ccc(OC)c(OC)c3)no2)cc1	22.3
COc1ccc(N2CCN(C(=O)CN3C(=O)COc4ccccc43)CC2)cc1	-1.51
Cc1[nH]c(C)c(S(=O)(=O)N2CCCCC2)c1C(=O)N1CCCCC1	4.27
O=C(OCC(=O)N1CCOCC1)c1cccc(S(=O)(=O)Nc2ccc(F)cc2)c1	-16.3
O=C1C(Cl)=C(N2CCOCC2)C(=O)N1c1ccccc1	3.46
Cc1cccc(C)c1NC(=O)C(=O)NCCCN1CCOCC1	8.72
O=C(O)CC1(CC(=O)N2CCOCC2)CCCC1	9.36
O=C(c1ccccc1)N1CCN(C(=O)c2ccccc2)C1c1ccccc1	4.53
O=C(NCCc1ccccn1)c1n[nH]c(=O)c2ccccc12	-13.1
CCCc1[nH]nc2c1C1(CCN(C(=O)OCc3ccccc3)CC1)C(C#N)=C(N)O2	-0.739
C[C@]12CCC(=O)C=C1CC[C@@H]1[C@@H]2[C@@H](O)C[C@]2(C=O)[C@@H](C(=O)CO)CC[C@@H]12	-0.464
O=C(NC(c1ccccc1)c1ccccc1)c1ccc(CO)cc1	-15.4
O=C1NC(=S)N(c2ccccc2)C(=O)C1C(c1ccncc1)C1C(=O)NC(=S)N(c2ccccc2)C1=O (stereo not drawn)	30.1
COc1cccc(C(=O)N/N=C(/c2ccccc2)c2ccccn2)c1	6.88
Cc1cc(OCC(=O)N(C)Cc2ccccc2)cc(C)c1Cl	-7.8
Cc1nn(C)c(C(=O)NC2C3CC4CC(C3)CC2C4)c1Cl (stereo not drawn)	2.27
COc1cc(OC)c2cc[nH]c2c1	27.3
